The values below come from the supplement of paper PMC7125110.

± gives the standard error. Variants at the background level are over-represented here.

The chains are these.
B1: glmS ribozyme (parent)
chain: AUAAAAGCGCCAGAACUACAGAAAUGUAGUUGACGAGGAGGAGGUUUAUCGAAUUUUCGGCGGAUGCCUCCAAA

Conditions in all cases: with glucosamine-6-phosphate
Data set [1] covers variants of B1. Briefly: self-cleavage kobs at 40 uM GlcN6P; higher = faster cleavage; RNA array. A digest of the protocol:
(§1)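 E. coli RNA polymerase transcribed barcoded ribozyme variants in situ on sequenced MiSeq chips, which were tracked via a hybridised Cy3 probe at 37 °C. Tiles were imaged over ~14 h after glucosamine-6-phosphate (40 μM to 10 mM) in HEPES/KCl/Mg(OAc)2 buffer was flowed in. Normalised per-tile medians were fit to one- or two-exponential decays for kobs, and kcat and KM came from weighted Michaelis–Menten fits.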

Data set [2] covers variants of B1. Briefly: self-cleavage kobs at 160 uM GlcN6P; higher = faster cleavage; RNA array. A digest of the protocol: as §1
The variants in data set [3] derive from B1. The data set can be described thus: self-cleavage kobs at 2500 uM GlcN6P; higher = faster cleavage; RNA array. A digest of the protocol:
as §1

The variants in data set [4] derive from B1. Briefly: self-cleavage kobs at 10000 uM GlcN6P; higher = faster cleavage; RNA array. The method in brief: as §1
Variants of B1 are the subject of data set [5]. The data set can be described thus: self-cleavage kobs at 640 uM GlcN6P; higher = faster cleavage; RNA array. The method in brief:
as §1

As for G40A U57A, the “self-cleavage kobs at 40 uM GlcN6P” value with glucosamine-6-phosphate [1] was less than 1e-05 s⁻¹. The “self-cleavage kobs at 160 uM GlcN6P” value with glucosamine-6-phosphate [2] is less than 1e-05 s⁻¹. In the data set with glucosamine-6-phosphate [3], the “self-cleavage kobs at 2500 uM GlcN6P” value was 3.99e-05 ± 1.3e-05 s⁻¹. Moreover, in the data set with glucosamine-6-phosphate [4], the “self-cleavage kobs at 10000 uM GlcN6P” value came out at 2.63e-05 ± 9.5e-06 s⁻¹.
A42G A53C: in the data set with glucosamine-6-phosphate [1], the “self-cleavage kobs at 40 uM GlcN6P” value turned out to be 0.000286 ± 5.1e-05 s⁻¹. In addition, the “self-cleavage kobs at 640 uM GlcN6P” value in the data set with glucosamine-6-phosphate [5] was 0.00271 ± 0.00065 s⁻¹. For the same variant, the “self-cleavage kobs at 160 uM GlcN6P” value with glucosamine-6-phosphate [2] turned out to be 0.000666 ± 0.00018 s⁻¹. Moreover, in the data set with glucosamine-6-phosphate [3], the “self-cleavage kobs at 2500 uM GlcN6P” value was 0.0112 ± 0.0032 s⁻¹. Besides, the “self-cleavage kobs at 10000 uM GlcN6P” value with glucosamine-6-phosphate [4] amounted to 0.0076 ± 0.0015 s⁻¹.
Consider G44A U46A U57C C68U, for which the “self-cleavage kobs at 40 uM GlcN6P” value in the data set with glucosamine-6-phosphate [1] is less than 1e-05 s⁻¹. Besides, in the data set with glucosamine-6-phosphate [3], the “self-cleavage kobs at 2500 uM GlcN6P” value was less than 1e-05 s⁻¹. For the same variant, the “self-cleavage kobs at 10000 uM GlcN6P” value with glucosamine-6-phosphate [4] is less than 1e-05 s⁻¹.
Take A36U G37A G51U: the “self-cleavage kobs at 40 uM GlcN6P” value in the data set with glucosamine-6-phosphate [1] was less than 1e-05 s⁻¹.
For G37C G60A, the “self-cleavage kobs at 40 uM GlcN6P” value in the data set with glucosamine-6-phosphate [1] was less than 1e-05 s⁻¹. Also, the “self-cleavage kobs at 640 uM GlcN6P” value in the data set with glucosamine-6-phosphate [5] was less than 1e-05 s⁻¹. In the data set with glucosamine-6-phosphate [2], the “self-cleavage kobs at 160 uM GlcN6P” value was less than 1e-05 s⁻¹. Further, in the data set with glucosamine-6-phosphate [3], the “self-cleavage kobs at 2500 uM GlcN6P” value is less than 1e-05 s⁻¹. Besides, the “self-cleavage kobs at 10000 uM GlcN6P” value with glucosamine-6-phosphate [4] was less than 1e-05 s⁻¹.
With A39C G51C, the “self-cleavage kobs at 40 uM GlcN6P” value with glucosamine-6-phosphate [1] is less than 1e-05 s⁻¹. For the same variant, the “self-cleavage kobs at 160 uM GlcN6P” value in the data set with glucosamine-6-phosphate [2] is less than 1e-05 s⁻¹. In addition, the “self-cleavage kobs at 10000 uM GlcN6P” value with glucosamine-6-phosphate [4] was less than 1e-05 s⁻¹.
Consider G41U A42U C50G, for which the “self-cleavage kobs at 40 uM GlcN6P” value in the data set with glucosamine-6-phosphate [1] is less than 1e-05 s⁻¹. Further, the “self-cleavage kobs at 640 uM GlcN6P” value with glucosamine-6-phosphate [5] is less than 1e-05 s⁻¹.
As for G43A C67G C68G, the “self-cleavage kobs at 40 uM GlcN6P” value with glucosamine-6-phosphate [1] is 5.46e-05 ± 1.7e-05 s⁻¹. Also, in the data set with glucosamine-6-phosphate [5], the “self-cleavage kobs at 640 uM GlcN6P” value was determined as 0.000155 ± 4.7e-05 s⁻¹. The “self-cleavage kobs at 2500 uM GlcN6P” value with glucosamine-6-phosphate [3] is 6.83e-05 ± 1.7e-05 s⁻¹. For the same variant, the “self-cleavage kobs at 10000 uM GlcN6P” value with glucosamine-6-phosphate [4] was 7.38e-05 ± 1.4e-05 s⁻¹.
As to A42G A64G, the “self-cleavage kobs at 40 uM GlcN6P” value with glucosamine-6-phosphate [1] stood at 0.000694 ± 0.00014 s⁻¹.
On to A42C G43C, for which the “self-cleavage kobs at 40 uM GlcN6P” value in the data set with glucosamine-6-phosphate [1] was less than 1e-05 s⁻¹. The “self-cleavage kobs at 640 uM GlcN6P” value in the data set with glucosamine-6-phosphate [5] was less than 1e-05 s⁻¹. Also, the “self-cleavage kobs at 160 uM GlcN6P” value with glucosamine-6-phosphate [2] is less than 1e-05 s⁻¹. Further, the “self-cleavage kobs at 2500 uM GlcN6P” value with glucosamine-6-phosphate [3] was less than 1e-05 s⁻¹.
Consider G37C G62U, for which the “self-cleavage kobs at 40 uM GlcN6P” value with glucosamine-6-phosphate [1] was less than 1e-05 s⁻¹. In the data set with glucosamine-6-phosphate [5], the “self-cleavage kobs at 640 uM GlcN6P” value is less than 1e-05 s⁻¹. Besides, in the data set with glucosamine-6-phosphate [2], the “self-cleavage kobs at 160 uM GlcN6P” value is less than 1e-05 s⁻¹. Besides, the “self-cleavage kobs at 10000 uM GlcN6P” value with glucosamine-6-phosphate [4] is less than 1e-05 s⁻¹.
As to G37C G62A, the “self-cleavage kobs at 40 uM GlcN6P” value in the data set with glucosamine-6-phosphate [1] is less than 1e-05 s⁻¹. Also, the “self-cleavage kobs at 10000 uM GlcN6P” value with glucosamine-6-phosphate [4] was less than 1e-05 s⁻¹.
Consider A42U C58A, for which the “self-cleavage kobs at 40 uM GlcN6P” value with glucosamine-6-phosphate [1] is less than 1e-05 s⁻¹. The “self-cleavage kobs at 640 uM GlcN6P” value with glucosamine-6-phosphate [5] is less than 1e-05 s⁻¹. Also, the “self-cleavage kobs at 160 uM GlcN6P” value with glucosamine-6-phosphate [2] is less than 1e-05 s⁻¹.
Turning to A39G G59C, the “self-cleavage kobs at 40 uM GlcN6P” value with glucosamine-6-phosphate [1] is less than 1e-05 s⁻¹. Also, in the data set with glucosamine-6-phosphate [5], the “self-cleavage kobs at 640 uM GlcN6P” value is less than 1e-05 s⁻¹. Further, the “self-cleavage kobs at 2500 uM GlcN6P” value with glucosamine-6-phosphate [3] was less than 1e-05 s⁻¹.
With G43A A64G, in the data set with glucosamine-6-phosphate [1], the “self-cleavage kobs at 40 uM GlcN6P” value was less than 1e-05 s⁻¹. In the data set with glucosamine-6-phosphate [2], the “self-cleavage kobs at 160 uM GlcN6P” value is less than 1e-05 s⁻¹. Besides, the “self-cleavage kobs at 10000 uM GlcN6P” value with glucosamine-6-phosphate [4] amounted to 4.35e-05 ± 1.7e-05 s⁻¹.
As to G37C G44U A52G, the “self-cleavage kobs at 40 uM GlcN6P” value with glucosamine-6-phosphate [1] is less than 1e-05 s⁻¹. Moreover, in the data set with glucosamine-6-phosphate [5], the “self-cleavage kobs at 640 uM GlcN6P” value is less than 1e-05 s⁻¹. For the same variant, the “self-cleavage kobs at 160 uM GlcN6P” value in the data set with glucosamine-6-phosphate [2] is less than 1e-05 s⁻¹. For the same variant, the “self-cleavage kobs at 2500 uM GlcN6P” value with glucosamine-6-phosphate [3] is less than 1e-05 s⁻¹.
For A42G A48G, the “self-cleavage kobs at 40 uM GlcN6P” value with glucosamine-6-phosphate [1] was less than 1e-05 s⁻¹. For the same variant, in the data set with glucosamine-6-phosphate [4], the “self-cleavage kobs at 10000 uM GlcN6P” value came out at 3.86e-05 ± 1.7e-05 s⁻¹.
On to G43C G66C, for which the “self-cleavage kobs at 40 uM GlcN6P” value with glucosamine-6-phosphate [1] is less than 1e-05 s⁻¹. For the same variant, the “self-cleavage kobs at 160 uM GlcN6P” value in the data set with glucosamine-6-phosphate [2] was less than 1e-05 s⁻¹. Besides, the “self-cleavage kobs at 2500 uM GlcN6P” value with glucosamine-6-phosphate [3] is less than 1e-05 s⁻¹. Further, the “self-cleavage kobs at 10000 uM GlcN6P” value in the data set with glucosamine-6-phosphate [4] is less than 1e-05 s⁻¹.
For the variant G43C G66U, the “self-cleavage kobs at 40 uM GlcN6P” value with glucosamine-6-phosphate [1] is less than 1e-05 s⁻¹. For the same variant, the “self-cleavage kobs at 640 uM GlcN6P” value with glucosamine-6-phosphate [5] was less than 1e-05 s⁻¹. Besides, the “self-cleavage kobs at 160 uM GlcN6P” value in the data set with glucosamine-6-phosphate [2] is less than 1e-05 s⁻¹. The “self-cleavage kobs at 2500 uM GlcN6P” value with glucosamine-6-phosphate [3] is less than 1e-05 s⁻¹.
Take A36G G51U: the “self-cleavage kobs at 40 uM GlcN6P” value with glucosamine-6-phosphate [1] was less than 1e-05 s⁻¹. Moreover, in the data set with glucosamine-6-phosphate [5], the “self-cleavage kobs at 640 uM GlcN6P” value was less than 1e-05 s⁻¹. Also, in the data set with glucosamine-6-phosphate [4], the “self-cleavage kobs at 10000 uM GlcN6P” value was less than 1e-05 s⁻¹.
